From PubChem BioAssay AID488969 (Vanderbilt High Throughput Screening Facility, 2010)
Whole data set: some 110,000 compounds, median “z-score” near -0.1, cut for the highest 2% near 2. The list shows a part of the results. Active and inactive are the calls of the source.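 Rule for the calls: active = z-score in the third read window above 3 or below -3; inactive = the rest.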

What follows are molecules tested against Metabotropic glutamate receptor 8 (Rattus norvegicus) (UniProt P70579) (assay: mGluR8 Gi/Go-coupled signaling modulation – cell-based, rat, thallium flux, HTS, primary screen (AID 488969)). Conditions: HEK293 rat mGluR8, GIRK (G protein-gated inwardly rectifying potassium channel) thallium flux, FluoZin2; at 10 µM; stronger effect = higher value; submaximal glutamate (EC20) added with thallium.
Sequence of UniProt P70579 (P70579 whole entry, looked up): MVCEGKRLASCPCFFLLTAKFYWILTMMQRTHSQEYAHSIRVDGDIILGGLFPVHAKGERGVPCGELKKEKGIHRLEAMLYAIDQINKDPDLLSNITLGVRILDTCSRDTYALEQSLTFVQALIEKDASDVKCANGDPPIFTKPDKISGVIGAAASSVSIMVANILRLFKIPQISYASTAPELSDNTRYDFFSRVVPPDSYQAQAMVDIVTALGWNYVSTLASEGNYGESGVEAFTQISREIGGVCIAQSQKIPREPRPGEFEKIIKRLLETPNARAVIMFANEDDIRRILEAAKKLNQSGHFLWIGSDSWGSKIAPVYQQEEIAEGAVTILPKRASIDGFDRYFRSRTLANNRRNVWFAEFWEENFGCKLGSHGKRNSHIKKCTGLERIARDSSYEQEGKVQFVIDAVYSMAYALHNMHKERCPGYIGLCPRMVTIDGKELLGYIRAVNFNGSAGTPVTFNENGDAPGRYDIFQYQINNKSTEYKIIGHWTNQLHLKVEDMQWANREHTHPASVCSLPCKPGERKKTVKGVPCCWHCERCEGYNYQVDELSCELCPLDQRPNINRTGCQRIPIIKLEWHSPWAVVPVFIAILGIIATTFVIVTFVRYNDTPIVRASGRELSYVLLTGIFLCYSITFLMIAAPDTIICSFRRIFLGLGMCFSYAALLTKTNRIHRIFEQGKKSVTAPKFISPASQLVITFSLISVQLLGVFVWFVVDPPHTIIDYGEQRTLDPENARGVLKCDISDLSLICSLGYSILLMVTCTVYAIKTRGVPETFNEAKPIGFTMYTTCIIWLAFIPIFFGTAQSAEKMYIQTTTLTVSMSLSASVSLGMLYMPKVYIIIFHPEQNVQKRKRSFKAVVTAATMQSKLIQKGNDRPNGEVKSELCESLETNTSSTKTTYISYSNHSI

Compound	z-score
CCN(CC)/C(=N/S(=O)(=O)c1ccc(C)cc1)c1ccccc1	-0.0744
Cc1ccc(S(=O)(=O)N2CCC(n3nnc4cc(C)ccc43)CC2)cc1	0.616
CN1CCN(c2nc(-c3ccco3)cc(C(F)(F)F)n2)CC1	0.276
CC1CCN(C(=O)CSc2nnc(CNc3ccc(F)cc3)n2Cc2ccco2)CC1	-0.0551
O=C1NC(=O)C2C1C(c1ccccc1)N1C3C(=O)NC(=O)C3C(c3ccccc3)N21 (centres undefined)	0.0962
Cc1cnc2cc([N+](=O)[O-])ccc2n1	0.0184
COC(=O)c1ccccc1NC(=O)c1cncc(Br)c1	0.0863
COc1cccc(NC(=O)CSc2ncnc3c2oc2ccccc23)c1	-0.957
COc1ccc(OC)c(NC(=O)CSc2nnc(-c3ccco3)n2-c2ccccc2)c1	-0.852
Oc1c(-c2cc(-c3ccco3)[nH]n2)ccc2ccccc12	-0.0554
COc1cccc(N/C(N)=N/c2nc(C(F)(F)F)cc(=O)[nH]2)c1	-0.116
O=C(CSc1nnc(C2COc3ccccc3O2)o1)N1CCOCC1 (centres undefined)	0.302
NC(=S)Cc1nc2n(n1)Cc1ccccc1-2	-0.229
O=C(Cn1ccc2ccccc2c1=O)NCCC(=O)N1CCN(c2cccc(Cl)c2)CC1	0.0135
Cc1cc(C)n(-c2cc(N3CCN(S(=O)(=O)c4ccc(Cl)cc4)CC3)ccc2[N+](=O)[O-])n1	-0.751
CCN(CC)C(=O)/C(=C\c1ccc2c(c1)OCO2)NC(=O)c1ccc(Br)cc1	-0.175
Clc1ccccc1-c1nnc2sc(-c3ccc(Br)o3)nn12	0.0969
O=C(c1ccc(CN2CCc3ccccc3C2)cc1)N1CCc2ccccc2C1	-0.874
COC(=O)c1ccc(OC)cc1OCC(=O)N1CCN(c2ccc(F)cc2)CC1	-0.137
Cc1cccc(N2C(=O)CSC2c2cccnc2)c1 (centres undefined)	0.57
Cc1cccn2c(=O)c3cc(C(=O)NC4CCS(=O)(=O)C4)sc3nc12 (centres undefined)	-0.276
CN(C)S(=O)(=O)n1cnc2ccccc21	-0.297
COC(=O)c1ccccc1NC(=O)C1COc2ccccc2O1 (centres undefined)	-0.34

Compound	z-score
Cc1ccc(C)c(S(=O)(=O)N2CCN(C(C)C(=O)Nc3ccccc3-c3ccccc3)CC2)c1 (centres undefined)	0.151
COc1ccc(OC)c(CN(CCCN2CCOCC2)S(=O)(=O)c2ccc(NC(C)=O)cc2)c1	-0.129
CC(=O)N1C2CCCCC2S[C@H]2CCCCC21 (some centres undefined)	0.0384
COc1ccc(NC(=O)CN2CCC(C)CC2)cc1	0.468
CN1CCCN(S(=O)(=O)c2ccc3c(c2)OCCO3)CC1	0.0526
CCC(=O)NCc1c(Cl)cccc1-n1cccc1	1.16
CN(C)c1ccc(N=Nc2ccccc2C(=O)OCC(=O)N2CCCCCC2)cc1	-0.0207
O=C(CSCc1ccccc1Cl)NNC(=O)c1ccccc1	0.0119
Cc1nc2ccc3nc(NC(=O)c4ccc(S(=O)(=O)N5CCOCC5)cc4)sc3c2s1	-0.108
CC(C)Cn1c(N)c(C(=O)COC(=O)c2cc(-c3ccco3)nc3ccccc23)c(=O)n(C)c1=O	-0.566
CC(C)n1c(Nn2cnnc2)nc2ccccc21	-0.0561
O=C(CN1C(=O)c2ccccc2S1(=O)=O)N1CCN(c2ccccc2)CC1	-0.193
Cc1ccc(NC(=O)c2ccc(NCCN)c([N+](=O)[O-])c2)cc1Cl	0.33
CCN1CC=C2C(C#N)=C(N)C(C#N)(C#N)[C@H](c3cccc(OC)c3OC)[C@H]2C1	-2.76
O=C(CN1CCN(S(=O)(=O)c2ccccc2)CC1)NC(=O)NCc1ccccc1	-0.0544
CCOC(=O)c1cnc2c(C)c(-c3ccccc3)[nH]n2c1=O	-0.434
CCN(CC)C1=CC(=O)OC12CCCCC2	0.00216
CC(C)CCn1c(SCC#N)nc2c(sc3ccccc32)c1=O	active: 5.93
COC(=O)c1ccc(NS(=O)(=O)c2ccc(SC)cc2)cc1	active: 5.24
CC(=O)N1CCN(C(=O)CSc2nc3c(cnn3-c3ccccc3)c(=O)[nH]2)CC1	0.574
COc1cccc(N(CC(=O)NCCSc2ccc(Cl)cc2)S(C)(=O)=O)c1	-0.141
C=CCn1c(SCc2csc(C)n2)nc2sc3c(c2c1=O)CCCCC3	-0.339
Nc1c(C(O)(C(F)(F)F)C(F)(F)F)ccc2ccccc12	-0.382

Compound	z-score
O=C(CSc1ncccn1)N/N=C/c1cccs1	-0.191
CC(C)C[C@H](NC(=O)N1CCN(c2ccccc2)CC1)C(=O)O	-0.289
COc1cc(OC)c(NC(=O)c2ccco2)cc1Cl	-0.103
c1ccc(-c2nnc(C(c3ccccc3)c3ccccc3)o2)cc1	-0.326
COc1ccc(NC(=O)CSc2nc3ccccc3c(=O)n2CCCN2CCCCC2)c(OC)c1	active: 3.69
O=C(O)CN1C(=O)c2cccc(Oc3ccc(Cl)cc3)c2C1=O	-0.259
CC1Oc2ccccc2OC1C(=O)Nc1ccccn1 (centres undefined)	0.0229
Cc1ccc(-n2c(=O)[nH]c3c(C(N)=O)nc(-c4ccc(C)o4)nc32)cc1	-0.33
Cc1ccc(/C=N/N2CCN(Cc3cccc4ccccc34)CC2)o1	-0.174
N/C(=N\OC(=O)CCCOc1ccccc1)c1ccccc1	0.0166
Cc1ccc(NC(=O)c2ccc(Nc3ccccc3F)nc2)cc1	0.372
CCOc1ccc(-n2c(=S)sc3c(=O)[nH]c(SCC(=O)N4CCC(C)CC4)nc32)cc1	-1.74
CC(/C=N/NC(=O)Cn1nccc1C)=C\c1ccc(C(C)C)cc1	-0.222
CC(C)(C)C(=O)c1sc(Nc2ccccc2)nc1N	-0.773
COc1ccc(C(=O)NCc2cn3ccccc3n2)cc1	-1.15
CC(C)c1ccccc1NC(=O)c1ccc(CN(c2ccccc2)S(=O)(=O)c2ccccc2)cc1	0.067
Cc1cc(NC(=O)CCN2C(=O)c3ccccc3C2=O)no1	-0.00975
COc1cc(C(C)=O)ccc1COc1ccc(C(=O)OC(C)C(=O)NC(N)=O)cc1OC (centres undefined)	-0.295
Cc1ccc2cc(C#N)c(N3CCCN(S(=O)(=O)c4ccccc4)CC3)nc2c1C	0.028
Cn1c(=O)c2c(ncn2Cc2ccccc2)n(C)c1=O	0.312
C/C(Cn1nnc2ccccc21)=N\OC(=O)c1ccccc1C	-0.123
CC(=O)NC1C(OCCOc2ccc(Cl)cc2Cl)OC(COC(C)=O)C(OC(C)=O)C1OC(C)=O (centres undefined)	-0.133
Cc1ccc(S(=O)(=O)N/N=C2/CCCCC2C2CCCCC2)cc1[N+](=O)[O-] (centres undefined)	0.108
